# From the supplement of paper PMC8728848
# The list shows a part of the results.
# B1: Surfactant Protein D (Human); Neck + Carbohydrate Recognition Domain (NCRD) (Homo sapiens) (protein)
# chain: MLLFLLSALVLLTQPLGYLEAEMKTYSHRTMPSACTLVMCSSVESGLPGRDRDGREGPRGEKGDPGLPGAAGQAGMPGQAGPVGPKGDNGSVGEPGPKGDTGPSGPPGPPGVPGPAGREGALGKQGNIGPQGKPGPKGEAGPKGEVGAPGMQGSAGARGLAGPKGERGVPGERGVPGNTGAAGSAGAMGPQGSPGARGPPGLKGDKGIPGDKGAKGESGLPDVASLRQQVEALQGQVQHLQAAFSQYKKVELFPNGQSVGEKIFKTAQFVKPFTEAQLLCTQAGGQLASPRSAAENAALQQLVVAKNEAAFLSMTDSKTEGKFTYPTGESLVYSNWAPGEPNDDGGSEDCVEIFTNGKWNDRACGEKRLVVCEF
# Assays:
# Experiment in all cases: glycan array binding signal (z-score within array); higher = stronger binding
# Conditions in all cases: glycan notation: IUPAC condensed, linker removed
# Fuc(a1-2)Gal = biological target: Fuc(a1-2)Gal
# Procedure, shortened: (§1)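 The Consortium for Functional Glycomics database supplied 3228 glycan arrays, of which those lacking an available protein sequence were dropped. The binding signal, a within-array Z-score, was averaged across arrays of the same protein sequence and across linkers. Negative scores can be read as non-binding.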
# Fuc(a1-2)Gal(b1-3)GalNAc = biological target: Fuc(a1-2)Gal(b1-3)GalNAc
# Procedure, shortened: as §1
# [1] = biological target: Fuc(a1-2)Gal(b1-3)GalNAc(b1-3)Gal
# Procedure, shortened: as §1
# [2] = biological target: Fuc(a1-2)Gal(b1-3)GalNAc(b1-3)Gal(a1-4)Gal(b1-4)Glc
# Procedure, shortened: as §1
# [3] = biological target: Fuc(a1-2)Gal(b1-3)GalNAc(b1-4)[Neu5Ac(a2-3)]Gal(b1-4)Glc
# Procedure, shortened: as §1
# Fuc(a1-2)Gal(b1-3)GlcNAc = biological target: Fuc(a1-2)Gal(b1-3)GlcNAc
# Procedure, shortened: as §1
# [4] = biological target: Fuc(a1-2)Gal(b1-3)GlcNAc(b1-3)Gal(b1-4)Glc
# Procedure, shortened: as §1
# [5] = biological target: Fuc(a1-2)Gal(b1-3)[Fuc(a1-4)]GlcNAc
# Procedure, shortened: as §1
# Fuc(a1-2)Gal(b1-4)Glc = biological target: Fuc(a1-2)Gal(b1-4)Glc
# Procedure, shortened: as §1
# Fuc(a1-2)Gal(b1-4)Glc6S = biological target: Fuc(a1-2)Gal(b1-4)Glc6S
# Procedure, shortened: as §1
# Fuc(a1-2)Gal(b1-4)GlcNAc = biological target: Fuc(a1-2)Gal(b1-4)GlcNAc
# Procedure, shortened: as §1
# [6] = biological target: Fuc(a1-2)Gal(b1-4)GlcNAc(b1-3)Gal(b1-4)GlcNAc
# Procedure, shortened: as §1
# [7] = biological target: Fuc(a1-2)Gal(b1-4)GlcNAc(b1-3)Gal(b1-4)GlcNAc(b1-3)Gal(b1-4)GlcNAc
# Procedure, shortened: as §1
# [8] = biological target: Fuc(a1-2)Gal(b1-4)GlcNAc6S
# Procedure, shortened: as §1
# [9] = biological target: Fuc(a1-2)Gal(b1-4)[Fuc(a1-3)]GlcNAc
# Procedure, shortened: as §1
# [10] = biological target: Fuc(a1-2)Gal(b1-4)[Fuc(a1-3)]GlcNAc(b1-3)Gal(b1-4)[Fuc(a1-3)]GlcNAc
# Procedure, shortened: as §1
# [11] = biological target: Fuc(a1-2)Gal(b1-4)[Fuc(a1-3)]GlcNAc(b1-3)Gal(b1-4)[Fuc(a1-3)]GlcNAc(b1-3)Gal(b1-4)[Fuc(a1-3)]GlcNAc
# Procedure, shortened: as §1
# Fuc(a1-2)Gal6S(b1-4)Glc = biological target: Fuc(a1-2)Gal6S(b1-4)Glc
# Procedure, shortened: as §1
# [12] = biological target: Fuc(a1-2)Gal6S(b1-4)Glc6S
# Procedure, shortened: as §1
# [13] = biological target: Fuc(a1-2)Gal6S(b1-4)GlcNAc
# Procedure, shortened: as §1
# Fuc(a1-2)[Gal(a1-3)]Gal = biological target: Fuc(a1-2)[Gal(a1-3)]Gal
# Procedure, shortened: as §1
# [14] = biological target: Fuc(a1-2)[Gal(a1-3)]Gal(b1-3)GlcNAc
# Procedure, shortened: as §1
# [15] = biological target: Fuc(a1-2)[Gal(a1-3)]Gal(b1-4)Glc
# Procedure, shortened: as §1
# [16] = biological target: Fuc(a1-2)[Gal(a1-3)]Gal(b1-4)GlcNAc
# Procedure, shortened: as §1
# [17] = biological target: Fuc(a1-2)[Gal(a1-3)]Gal(b1-4)[Fuc(a1-3)]GlcNAc
# Procedure, shortened: as §1
# [18] = biological target: Fuc(a1-2)[Gal(a1-4)]Gal(b1-4)GlcNAc
# Procedure, shortened: as §1
# [19] = biological target: Fuc(a1-2)[GalNAc(a1-3)]Gal
# Procedure, shortened: as §1
# [20] = biological target: Fuc(a1-2)[GalNAc(a1-3)]Gal(b1-3)GlcNAc
# Procedure, shortened: as §1
# [21] = biological target: Fuc(a1-2)[GalNAc(a1-3)]Gal(b1-4)Glc
# Procedure, shortened: as §1
# [22] = biological target: Fuc(a1-2)[GalNAc(a1-3)]Gal(b1-4)GlcNAc
# Procedure, shortened: as §1
# [23] = biological target: Fuc(a1-2)[GalNAc(a1-3)]Gal(b1-4)[Fuc(a1-3)]GlcNAc
# Procedure, shortened: as §1
# [24] = biological target: Fuc(a1-2)[GalNAc(a1-4)]Gal(b1-4)GlcNAc
# Procedure, shortened: as §1
# [25] = biological target: Fuc(a1-2)[GalNAc(b1-3)]Gal
# Procedure, shortened: as §1
# Fuc(a1-3)GlcNAc = biological target: Fuc(a1-3)GlcNAc
# Procedure, shortened: as §1
# [26] = biological target: Fuc(a1-3)[Gal(b1-4)]Glc6S
# Procedure, shortened: as §1
# [27] = biological target: Fuc(a1-3)[Gal(b1-4)]GlcNAc
# Procedure, shortened: as §1
# [28] = biological target: Fuc(a1-3)[Gal(b1-4)]GlcNAc(b1-2)Man(a1-3)[Fuc(a1-3)[Gal(b1-4)]GlcNAc(b1-2)Man(a1-6)]Man(b1-4)GlcNAc(b1-4)GlcNAc
# Procedure, shortened: as §1
# [29] = biological target: Fuc(a1-3)[Gal(b1-4)]GlcNAc(b1-2)Man(a1-6)[Gal(b1-4)GlcNAc(b1-2)Man(a1-3)]Man(b1-4)GlcNAc(b1-4)GlcNAc
# Procedure, shortened: as §1
# [30] = biological target: Fuc(a1-3)[Gal(b1-4)]GlcNAc(b1-3)Gal(b1-3)[Fuc(a1-4)]GlcNAc
# Procedure, shortened: as §1
# [31] = biological target: Fuc(a1-3)[Gal(b1-4)]GlcNAc(b1-4)Gal(b1-4)[Fuc(a1-3)]GlcNAc
# Procedure, shortened: as §1
# [32] = biological target: Fuc(a1-3)[Gal(b1-4)]GlcNAc(b1-4)Gal(b1-4)[Fuc(a1-3)]GlcNAc(b1-4)Gal(b1-4)[Fuc(a1-3)]GlcNAc
# Procedure, shortened: as §1
# [33] = biological target: Fuc(a1-3)[Gal(b1-4)]GlcNAc6S
# Procedure, shortened: as §1
# [34] = biological target: Fuc(a1-3)[Gal3S(b1-4)]Glc6S
# Procedure, shortened: as §1
# [35] = biological target: Fuc(a1-3)[Gal3S(b1-4)]GlcNAc
# Procedure, shortened: as §1
# [36] = biological target: Fuc(a1-3)[Gal3S(b1-4)]GlcNAc6S
# Procedure, shortened: as §1
binder,measurement,setting,value
B1,glycan array binding signal (z-score),Fuc(a1-2)Gal,-0.24
same,glycan array binding signal (z-score),Fuc(a1-2)Gal(b1-3)GalNAc,-0.263
same,glycan array binding signal (z-score),[1],0.427
same,glycan array binding signal (z-score),[2],-0.283
same,glycan array binding signal (z-score),[3],-0.16
same,glycan array binding signal (z-score),Fuc(a1-2)Gal(b1-3)GlcNAc,-0.162
same,glycan array binding signal (z-score),[4],-0.227
same,glycan array binding signal (z-score),[5],-0.286
same,glycan array binding signal (z-score),Fuc(a1-2)Gal(b1-4)Glc,-0.245
same,glycan array binding signal (z-score),Fuc(a1-2)Gal(b1-4)Glc6S,-0.191
same,glycan array binding signal (z-score),Fuc(a1-2)Gal(b1-4)GlcNAc,-0.237
same,glycan array binding signal (z-score),[6],-0.234
same,glycan array binding signal (z-score),[7],-0.195
same,glycan array binding signal (z-score),[8],-0.171
same,glycan array binding signal (z-score),[9],-0.252
same,glycan array binding signal (z-score),[10],-0.256
same,glycan array binding signal (z-score),[11],-0.128
same,glycan array binding signal (z-score),Fuc(a1-2)Gal6S(b1-4)Glc,-0.237
same,glycan array binding signal (z-score),[12],-0.114
same,glycan array binding signal (z-score),[13],-0.266
same,glycan array binding signal (z-score),Fuc(a1-2)[Gal(a1-3)]Gal,-0.228
same,glycan array binding signal (z-score),[14],-0.277
same,glycan array binding signal (z-score),[15],-0.285
same,glycan array binding signal (z-score),[16],-0.235
same,glycan array binding signal (z-score),[17],-0.183
same,glycan array binding signal (z-score),[18],-0.272
same,glycan array binding signal (z-score),[19],-0.261
same,glycan array binding signal (z-score),[20],-0.247
same,glycan array binding signal (z-score),[21],-0.26
same,glycan array binding signal (z-score),[22],-0.276
same,glycan array binding signal (z-score),[23],-0.198
same,glycan array binding signal (z-score),[24],-0.202
same,glycan array binding signal (z-score),[25],-0.217
same,glycan array binding signal (z-score),Fuc(a1-3)GlcNAc,0.074
same,glycan array binding signal (z-score),[26],-0.196
same,glycan array binding signal (z-score),[27],-0.26
same,glycan array binding signal (z-score),[28],-0.211
same,glycan array binding signal (z-score),[29],-0.27
same,glycan array binding signal (z-score),[30],-0.257
same,glycan array binding signal (z-score),[31],-0.029
same,glycan array binding signal (z-score),[32],-0.273
same,glycan array binding signal (z-score),[33],-0.256
same,glycan array binding signal (z-score),[34],-0.17
same,glycan array binding signal (z-score),[35],-0.267
same,glycan array binding signal (z-score),[36],-0.123
